Test results as given in patent publication US8476255B2, “Histone deacetylase inhibitors” (Orchid Chemicals & Pharmaceuticals Limited, priority 2007, dated 2013).
For at least one compound, name, drawing or mass did not settle the structure.

Tested on: HDAC (Mouse Liver Extract)
Experiment: HDAC inhibition assay using Boc-Lys(Ac)-AMC substrate
Type: biochemical
Details: mouse liver enzyme
Method: Inhibition of HDAC has been implicated to modulate transcription and to induce apoptosis or differentiation in cancer cells. The fluorometric assay provides a fast and fluorescence based method that eliminates radioactivity, extractions or chromatography, as used in traditional assays. The assay is based on two steps. First, the HDAC fluorometric substrate, which comprises an acetylated lysine side chain, is incubated with a sample containing HDAC activity (Mouse Liver Extract). Deacetylation of the substrate sensitizes the substrate, in the second step; treatment with the Trypsin stop solution produces a fluorophore that can be easily analyzed using fluorescence plate reader. Assay was done in 96-well black microplate and total volume of the assay was […]. […] The plate was pre-incubated at 37° C. for 5 minutes. […] The plate was incubated at 37° C. for 30 min. The reaction was stopped by adding 100 μL, of Trypsin stop solution and incubating at 37° C. for 15-30 min. Measuring the fluorescence at excitation wavelength of 360 nm and emission wavelength of 460 nm monitored the release of AMC. Buffer alone and substrate alone served as blank. […] (Dennis Wegener et al, Anal. Biochem, 321, 2003, 202-208).

Row | SMILES | HDAC inhibition % (1 μM) [%] | HDAC inhibition % (10 μM) [%] | IC50 [nM]
1 | CSc1ccc(/C=C(/C(=O)NCc2ccc(C(=O)Nc3ccccc3N)cc2)c2ccccc2Cl)cc1 [Compound 23, N-(2-Aminophenyl)-4-((3-(4-methylthiophenyl)-2-(2-chlorophenyl)acrylamido)methyl)benzamide] | 41.1 | 57.0 | –
2 | COc1ccc(/C(=C\c2ccc(SC)cc2)C(=O)NCc2ccc(C(=O)NO)cc2)cc1 [Compound 57, 4-((2-(4-Methoxyphenyl)-3-(4-methylthiophenyl)acrylamido)methyl)-N-hydroxybenzamide] | 83.5 | 96.9 | 70
3 | CSc1ccc(/C=C(/C(=O)NCc2ccc(C(=O)NO)cc2)c2ccc(C)cc2)cc1 [Compound 58, 4-((2-(4-Methylphenyl)-3-(4-methylthiophenyl)acrylamido)methyl)-N-hydroxybenzamide] | 71.1 | 97.6 | 40
4 | COc1ccc(/C(=C\c2ccc(SC)cc2)C(=O)NCCCCCC(=O)NO)cc1 [Compound 92, 6-(2-(4-Methoxyphenyl)-3-(4-methylthiophenyl)acrylamido)-N-hydroxy hexanamide] | 88.3 | 100.0 | 240
5 | O=C(CCCCCNC(=O)/C(=C/C1CC1)c1ccc(F)cc1)NO [Compound 93, 6-(2-(4-Fluorophenyl)-3-(cyclopropyl)acrylamido)-N-hydroxy hexanamide] | 66.5 | 93.4 | –
6 | CSc1ccc(/C=C(/C(=O)NCCCCCC(=O)NO)c2ccccc2F)cc1 [Compound 94, 6-(2-(2-Fluorophenyl)-3-(4-methylthiophenyl)acrylamido)-N-hydroxy hexanamide] | 92.1 | 100.0 | –
